Measured values: PubChem BioAssay AID588453 (National Center for Advancing Translational Sciences (NCATS), 2011)
Where “and” joins values, the source holds several entries; their conditions need not be identical. Equal values may be shown once. Among all 390,000 compounds or so, about 4,000 (1%) were called active. The inconclusive results got no clear call from the source; some entries with a clear call stand among them for comparison. Calls come from the whole dose curve; as a rule, active = well fitted inhibition curve with a large enough effect; inconclusive = small, poorly fitted or top-dose-only effect; inactive = no such curve, though single readings can be large or run the other way. A potency beside an inconclusive call is a rough fit, not a confirmed value.

biological target: Thioredoxin reductase 1, cytoplasmic (Rattus norvegicus) (UniProt O89049); assay: qHTS Assay for Inhibitors of Mammalian Selenoprotein Thioredoxin Reductase 1 (TrxR1): qHTS; settings: recombinant rTrxR1, NADPH fluorescence consumption, selenite substrate; series mostly up to 114 µM; note: nearly all actives have a fitted effect of over 65% in size
Summary of the method: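 Rat TrxR1 (90 nM in the dispensed reagent) was pre-reduced with 400 uM NADPH for 5 min at room temperature, then incubated with compound for 15 min. After 400 uM selenite was added, NADPH fluorescence (Ex 340/Em 450 nm) was followed for 8 min.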
Potency is the fitted concentration of half-maximal effect; tags give direction and shape of the fitted curve.

Sequence of UniProt O89049 (O89049 whole entry, looked up): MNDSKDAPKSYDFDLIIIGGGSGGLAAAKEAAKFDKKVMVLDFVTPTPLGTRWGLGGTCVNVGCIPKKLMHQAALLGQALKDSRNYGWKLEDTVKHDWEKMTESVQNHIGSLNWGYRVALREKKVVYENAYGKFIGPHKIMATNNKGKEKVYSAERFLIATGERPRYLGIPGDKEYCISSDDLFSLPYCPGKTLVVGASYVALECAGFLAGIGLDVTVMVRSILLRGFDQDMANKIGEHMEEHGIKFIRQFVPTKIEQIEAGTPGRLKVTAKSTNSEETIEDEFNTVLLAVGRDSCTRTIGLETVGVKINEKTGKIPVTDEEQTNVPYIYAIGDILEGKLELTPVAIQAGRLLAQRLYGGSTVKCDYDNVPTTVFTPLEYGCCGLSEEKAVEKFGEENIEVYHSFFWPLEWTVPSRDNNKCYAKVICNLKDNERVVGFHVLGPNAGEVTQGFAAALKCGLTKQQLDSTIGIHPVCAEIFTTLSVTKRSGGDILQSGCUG

| SMILES | Potency |
| --- | --- |
| COc1cc(NC(=O)COc2ccc(-n3ccnc3)cc2)cc(OC)c1 | inactive |
| O=C(NCC1CCCO1)c1cc2nc(-c3ccco3)cc(C(F)(F)Cl)n2n1 (centres undefined) | inconclusive: 56.2 µM [inhibitor, partial curve] |
| Cc1cc2nn(-c3ccc(Cl)cc3)nc2cc1NC(=O)C(C)C | inactive |
| CC(=O)Nc1ccc(SCC(=O)Nc2ccc3c(c2)OCCO3)cc1 | inactive |
| Cc1cc(N2CCCC2)ccc1/C=C1\NC(=S)N(C)C1=O | inconclusive: 79.4 µM [inhibitor, single point] |
| O=C(NC(=S)N1CCCc2ccccc21)c1ccc(Cl)cc1 | inconclusive: 79.4 µM [inhibitor, single point] |
| COc1ccc(NC(=O)c2ccco2)c([N+](=O)[O-])c1 | inconclusive: 89.1 µM [inhibitor, single point] |
| CCOc1cc(C2/C(=C(\O)c3cc(C)ccc3C)C(=O)C(=O)N2CCN(C)C)ccc1O (centres undefined) | inconclusive: 70.8 µM [inhibitor, single point] |
| N#Cc1cnn2cc(-c3ncc(C(F)(F)F)cc3Cl)cnc12 | inactive |
| O=C(Nc1ccccc1)c1ccc2nc(-c3ccco3)c(-c3ccco3)nc2c1 | active: 3.16 µM and active: 3.98 µM |
| O=C(CCc1ccccc1)N/N=C/c1cccc(O)c1 | inconclusive: 0.631 µM [inhibitor, full curve, poor fit] |
| CCN1CCOC(=O)C1CC(=O)Nc1ccccc1C(F)(F)F (centres undefined) | inconclusive: 56.2 µM [inhibitor, partial curve, poor fit] |
| CCOC(=O)/C(C#N)=C\c1ccc(N2CCN(C/C=C/c3ccccc3)CC2)cc1 | inactive |
| O=c1/c(=C\c2cc([N+](=O)[O-])cc([N+](=O)[O-])c2O)sc2nc3ccccc3n12 | inconclusive: 25.1 µM [inhibitor, single point] |
| Cc1ccc(CNC(=O)CN(Cc2cccs2)C(=O)C2(C)CC(=O)N=C3C=CC=CN32)cc1 (centres undefined) | inconclusive: 100 µM [inhibitor, single point] |
| CCCOc1ccc(N2C(=O)CC(NCCCN3CCC(C(N)=O)CC3)C2=O)cc1 (centres undefined) | inconclusive: 56.2 µM [inhibitor, partial curve, poor fit] |
| Cc1ccc(-c2nnn(CC(=O)N(Cc3ccco3)C(C(=O)NC(C)(C)C)c3cccs3)n2)o1 (centres undefined) | inconclusive: 14.1 µM [inhibitor, full curve] |
| COc1ccc(OC)c(-n2c(-c3ccc(O)cc3O)n[nH]c2=S)c1 | inconclusive: 7.94 µM [inhibitor, partial curve, poor fit] |
| O=C(CSc1nnc(-c2ccco2)n1Cc1ccco1)N1CCOCC1 | inconclusive: 15.8 µM [inhibitor, full curve] |
| Cc1ccccc1OCC1Cn2c(nc3c2c(=O)n(C)c(=O)n3C)O1 (centres undefined) | inactive |
| CCN1c2ccccc2NC2N=C(OC)C(c3ccccc3)C21 (centres undefined) | active: 20 µM |
| Cc1cc(C(F)(F)F)nn1Cc1n[nH]c(=S)n1-c1ccc(Cl)cc1 | inconclusive: 50.1 µM [inhibitor, partial curve, poor fit] |

| SMILES | Potency |
| --- | --- |
| O=c1c(C(c2ccc(O)cc2)c2c(O)nc3n(c2=O)CCCS3)c(O)nc2n1CCCS2 | active: 3.55 µM |
| CCOC(=O)C1=C(c2ccccc2)N=c2s/c(=C\c3ccco3)c(=O)n2C1c1cccs1 (centres undefined) | inconclusive: 35.5 µM [inhibitor, partial curve] |
| COc1cccc(N(C(=O)CCl)C(C(=O)NCCc2ccccc2)c2cccs2)c1 (centres undefined) | active: 14.1 µM |
| COc1cccc(F)c1C(C[N+](=O)[O-])c1c(N)n(C)c(=O)n(C)c1=O (centres undefined) | inconclusive: 44.7 µM [inhibitor, partial curve, poor fit] |
| Cc1cccc(C(=O)NC(=S)NNC(=O)c2ccc(Cl)cc2)c1 | inconclusive: 70.8 µM [inhibitor, partial curve, poor fit] |
| CCOc1ccc(/C=C/c2ccc3ccccc3[n+]2C)cc1OCC | inconclusive: 31.6 µM [inhibitor, partial curve, poor fit] |
| O=C(CC1Nc2ccccc2NC1=O)Nc1ccccc1 (centres undefined) | inconclusive: 70.8 µM [inhibitor, partial curve] |
| OCc1ccnc2c(O)cccc12 | inconclusive: 8.91 µM [inhibitor, partial curve, poor fit] |
| c1ccc(Nc2nc(N3CCCCC3)nc(N3CCNCC3)n2)cc1 | inconclusive: 7.08 µM [inhibitor, single point] |
| COc1cc(NCCC(=O)c2cccs2)c(OC)cc1Cl | active: 17.8 µM |
| Cc1ccc2nc(/C(C#N)=C/c3ccc(-c4ccccc4C(=O)O)o3)[nH]c2c1 | inconclusive: 44.7 µM [inhibitor, partial curve, poor fit] |
| CCc1ccc(OCC(=O)NNC(=S)NC(=O)C2CC2)c(Br)c1 | inconclusive: 10 µM [inhibitor, partial curve] |
| CC(=O)N1CCc2cc(C(=O)CN3CCCCC3)ccc21 | inconclusive: 25.1 µM [inhibitor, single point] |
| CCc1cc(C(=O)N2CCCC(N3CCN(c4cccc(C(F)(F)F)c4)CC3)C2)n(C)n1 (centres undefined) | inactive |
| O=C(O)C1C2C=CC(O2)C1C(=O)Nc1ccccc1C(F)(F)F (centres undefined) | inconclusive: 39.8 µM [inhibitor, single point] |
| Cc1nc(C#N)c(N/N=C/c2cccc(Cl)c2)o1 | inconclusive: 89.1 µM [inhibitor, partial curve, poor fit] |
| COc1cccc(CNC(=O)Cn2c(=O)c3cccn3c3ccc(F)cc32)c1OC | inactive |
| S=c1[nH]nc(-c2cccnc2)n1Cc1ccccc1 | inactive |
| CC(=O)CSc1nc(-c2ccccc2)[nH]c1S(=O)(=O)c1ccc(C)cc1 | inactive |
| COc1cccc2sc(N3CCN(C(=O)c4ccc([N+](=O)[O-])o4)CC3)nc12 | inconclusive: 50.1 µM [inhibitor, partial curve] |
| O=C(/C=C/c1ccc([N+](=O)[O-])cc1)NNC(=O)C1CC1 | inactive |
| Cn1c(C(=O)OCC(=O)NCc2ccco2)cc2sccc21 | active: 25.1 µM |
